The campaign covered roughly 46,000 compounds. About 60 (0.1%) were called active. Roughly 3% stayed inconclusive and do not appear here. Calls follow the shape of the dose curve; as a rule, active = well fitted inhibition curve with a large enough effect; inconclusive = small, poorly fitted or top-dose-only effect; inactive = no such curve, though single readings can be large or run the other way. This is one part of the list.
Experiment: Primary qHTS assay for Inhibitors of ovarian cancer metastasis using an organotypic tumor microenvironment (TME) model. Also: nearly all actives have a fitted effect of over 65% in size.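 As to activity change, negative = inhibition: plate controls were DMSO wells for no effect and tomatine positive control wells for full effect.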
Details: SKOV3ip1-GFP adhesion/invasion on 3D omental model, fluorescence; series mostly up to 45.8 µM; activity change, negative = inhibition: at the top concentration
Summary of the method: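 Adhesion/invasion was scored as fixed GFP-labeled SKOV3ip1 cell counts (488/509 nm), normalized to DMSO and tomatine controls. Cancer cells in serum-free medium, with four compound doses (0.36-46 umol/L), sat 2 hr at RT then 16 hr at 37 C on a 48 hr fibroblast/mesothelial/ECM culture.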

Activity change, negative = inhibition, inactive:
CCCn1c(=O)c2sccc2n2c(CCCC(=O)NCCOC)nnc12 -0.76%
CC(=O)N1CCCc2cc(S(=O)(=O)N3CCCC(C(=O)NCc4ccc(Cl)cc4)C3)ccc21 (stereo not given) 11.4%
Cc1cc(O)c(C(c2cccc(Cl)c2)N2CCN(c3ccccc3)CC2)c(=O)n1Cc1ccco1 (stereo not given) 2.4%
CC(C)CC(=O)Nc1ccc(C(=O)OCc2cc(=O)n3nc(C4CCCCC4)sc3n2)cc1 12.6%
COc1ccccc1NC(=O)CSc1ncc2c(n1)-c1cc(Cl)ccc1N(C)S2(=O)=O 8.88%
CCc1ccc(-n2c(C)nc3cc(C(=O)NCCc4ccccc4)ccc32)cc1 2.57%
CCC1CN(C(=O)NCc2ccc(F)cc2)c2ccccc2O1 (stereo not given) 5.26%
COc1ccc(C2CC(=O)N3CN(C4CCCCC4)CSC3=C2C#N)cc1 (stereo not given) -5.08%
Cc1ccc(Cn2c(=O)c3ccccc3n3c(-c4ccccc4)nnc23)cc1 -4.45%
CCc1ccc(CNC(=O)CSCc2cnn(-c3ccccc3)c2-n2cccc2)cc1 -9.01%
Cc1ccc(Cl)cc1NC(=O)CCS(=O)(=O)c1ccc(Br)s1 0.188%
COc1ccc(CCNC(=O)C(=O)NCC(c2cccs2)S(=O)(=O)c2ccccc2)cc1 (stereo not given) 0.314%
O=C(Nc1ccc2c(c1)N(C1CCCC1)C(=O)c1ccccc1S2)c1ccccc1 -9.53%
COc1ccc(OC)c(CNS(=O)(=O)c2ccc(-c3cc(C(F)(F)F)on3)s2)c1 14.6%
CCOC(=O)c1noc2ncn(CC(=O)O)c(=O)c12 -0.604%
CCN1C(=O)CC(C(=O)Nc2ccc(OC)cc2)SC1=Nc1ccc(C)c(C)c1 (stereo not given) 8.15%
CCOc1ccc(-c2ccc(CO)o2)cc1N 0.646%
CCc1cccc(NC(=O)CCS(=O)(=O)c2ccc(C)cc2)c1 -8.44%
Cc1ccc(N2CCN(C(=O)c3nn(C)c4c3CSc3ccccc3-4)CC2C)cc1 (stereo not given) 5.87%
O=S(=O)(Nc1nc2n(n1)C(c1ccccc1)C=C(c1ccc(Cl)cc1)N2)c1ccccc1 (stereo not given) -34.3%
COc1ccc(-c2noc(-c3ccccc3NC(=O)c3cc(OC)c(OC)c(OC)c3)n2)cc1 -8.97%
COc1ccc(C2CC(=O)c3c([nH]c(C(=O)OCc4ccccc4)c3C)C2)cc1OC (stereo not given) -8.69%
CCOc1cc(C2c3c(oc4ccc(F)cc4c3=O)C(=O)N2Cc2ccc(C)cc2)ccc1O (stereo not given) -25.2%
O=C(COc1ccccc1F)Nc1nnc(S(=O)(=O)N2CCCCCC2)s1 -6.26%
COc1ccccc1N1CCN(C(=O)CSc2nc(-c3ccc(C(C)C)cc3)no2)CC1 -1.3%
COc1ccc(Nc2nnc(-c3ccc(C)c(S(=O)(=O)N4CCOCC4)c3)c3ccccc23)cc1 7.69%
CCCCNC(=O)C1CCN(Cc2nc(-c3ccc(OC)c(OC)c3)oc2C)CC1 0.633%
COc1cc(Nc2ncc3c(n2)-c2ccc(Cl)cc2C(c2c(F)cccc2OC)=NC3)ccc1C(=O)O -9.48%
Cc1ccccc1Cc1c(C)nc2nc(SCC(=O)NC(C)c3ccccc3)nn2c1C (stereo not given) 1.03%
CCOC(=O)c1c(C)oc2nc(C)nc(NCCCN3CCN(c4cccc(C)c4)C(C)C3)c12 (stereo not given) -6.33%
Cc1ccc(-c2noc(-c3ccc(NCC4CCCO4)c([N+](=O)[O-])c3)n2)cc1 (stereo not given) -0.747%
CCCCOc1cccc(C(=O)N(Cc2ccc(Cl)cc2)C2CCS(=O)(=O)C2)c1 (stereo not given) -0.235%
COc1ccc(CCNC(=O)CSc2nnc(-c3ccc(C)cc3)c(-c3ccc(C)cc3)n2)cc1OC 3.59%
Cc1cc(=O)[nH]c2nnc(SCCC(C)C)n12 -5.23%
CCOc1ccc(C(=O)NCCS(=O)(=O)N2CCN(c3cccc(Cl)c3)CC2)cc1 0.353%
CC(=O)c1ccc(N2CCN(C(=O)CS(=O)(=O)c3cccc4nsnc34)CC2)cc1 1.31%
COc1cccc(C2=NN(S(C)(=O)=O)C(c3cn(-c4ccccc4)nc3-c3cccs3)C2)c1 (stereo not given) 3.22%
COc1ccc(-c2[nH]c(-c3ccc(OC)c(OC)c3)nc2SCC(=O)Nc2ccccc2)cc1 6.06%
Cc1cccc(NC(=O)c2oc3ccc(S(=O)(=O)N4CCCCC4)cc3c2C)c1C 3.57%
COc1ccc(C(=O)c2cn(Cc3ccccc3F)c3ccc(F)cc3c2=O)cc1 1.75%
O=C(c1cccc(Cl)c1)N1CCC(c2nc3c(nnn3Cc3ccc(F)cc3F)c(=O)[nH]2)CC1 2.39%
Cc1ccc(-c2nnc(Nc3ccc(Cl)cc3)c3ccccc23)cc1S(=O)(=O)NCC1CCCO1 (stereo not given) 7.84%

outcome, inactive:
Cc1nc(N2CCCC2)ncc1C(=O)Nc1ccccc1
COc1cccc(CN2C(=O)c3ccccc3C2C(=O)NCCc2ccc(OC)c(OC)c2)c1 (stereo not given)
CN(C)c1ccc(CN(CC2CCCO2)C(=O)COc2ccc(Cl)cc2)cc1 (stereo not given)
COc1ccc(-n2c(=O)c3c4c(sc3n(Cc3cc(=O)n5c(C)cccc5n3)c2=O)CCC4)c(OC)c1
Cc1ccc(NC(=O)c2ccco2)c(OCc2cc(=O)n3cc(C)sc3n2)c1
Cc1ccc(OCC(=O)Nc2ccc3nc(SCC(=O)N4CCCC4)sc3c2)cc1C
Cc1ccc(SCC(=O)Nc2ccc3oc(-c4cccc(C)c4)nc3c2)cc1
COc1cccc(-c2nc(CS(=O)CC(=O)N3CCN(c4cccc(C(F)(F)F)c4)CC3)c(C)o2)c1 (stereo not given)
O=C(Cn1cc(SCc2ccccc2Cl)c2ccccc21)N1CCCCCC1
O=C(NCCC1=CCCCC1)c1ccc2c(c1)N(Cc1ccccc1)C(=O)c1ccccc1S2(=O)=O
O=C(NC1CCCC1)c1ccc2c(c1)N(Cc1ccc(F)cc1)C(=O)c1ccccc1S2
CCc1ccc(C2c3c(n[nH]c3C)C(=O)N2c2ccc(C)cc2)cc1 (stereo not given)
Cc1ccc(CNC(=O)CN(c2cc(C)cc(C)c2)S(=O)(=O)c2c(C)[nH]c(=O)[nH]c2=O)cc1
CC(C)CCNC(=O)CSc1nc2ccsc2c(=O)n1Cc1ccccc1Cl
CCCCNC(=O)CSc1nc2n[nH]c(C)c2c(=N)n1-c1ccccc1CC
CCC1CN(C(=O)Nc2cccc3c2CCCC3)c2cc(C)ccc2O1 (stereo not given)
COc1ccccc1NC(=O)N1CC=C(c2c[nH]c3ccccc23)CC1
COc1ccc(CNC(=O)CN(C)c2nn3c(=O)cc(C)nc3s2)cc1
